25 substances from article PMC13423814 can be followed below.

For part of its entries the source gives two or more results. This is not the full list of results. An entry can have further records. Some entries list several cross-links; each record is another pair of residues.

Among the targets are ALDH2 (UniProt P05091); HSPE1 (UniProt P61604); MDH2 (UniProt P40926); AP2M1 (UniProt Q96CW1); EEF1D (UniProt P29692); CNPY2 (UniProt Q9Y2B0); EBNA1BP2 (UniProt Q99848); CHMP2B (UniProt Q9UQN3); CALR (UniProt P27797); FDXR (UniProt P22570); HSPA9 (UniProt P38646); CHCHD3 (UniProt Q9NX63); COA3 (UniProt Q9Y2R0); CCT8 (UniProt P50990); CYCS (UniProt P99999); PHB2 (UniProt Q99623); ENO1 (UniProt P06733); BOP1 (UniProt Q14137); DDX46 (UniProt Q7L014); HKDC1 (UniProt Q2TB90); H4C1 (UniProt P62805); LMNB1 (UniProt P20700); LMNB2 (UniProt Q03252); TMPO (UniProt P42167); TOR1AIP1 (UniProt Q5JTV8); HSP90B1 (UniProt P14625); PPIB (UniProt P23284); NSMCE3 (UniProt Q96MG7); H1-2 (UniProt P16403); NOP58 (UniProt Q9Y2X3); HSP90AB4P (UniProt Q58FF6); HNRNPD (UniProt Q14103); HNRNPK (UniProt P61978); MYBBP1A (UniProt Q9BQG0); RPL23A (UniProt P62750).
Chain of UniProt Q7L014 (Q7L014 whole entry): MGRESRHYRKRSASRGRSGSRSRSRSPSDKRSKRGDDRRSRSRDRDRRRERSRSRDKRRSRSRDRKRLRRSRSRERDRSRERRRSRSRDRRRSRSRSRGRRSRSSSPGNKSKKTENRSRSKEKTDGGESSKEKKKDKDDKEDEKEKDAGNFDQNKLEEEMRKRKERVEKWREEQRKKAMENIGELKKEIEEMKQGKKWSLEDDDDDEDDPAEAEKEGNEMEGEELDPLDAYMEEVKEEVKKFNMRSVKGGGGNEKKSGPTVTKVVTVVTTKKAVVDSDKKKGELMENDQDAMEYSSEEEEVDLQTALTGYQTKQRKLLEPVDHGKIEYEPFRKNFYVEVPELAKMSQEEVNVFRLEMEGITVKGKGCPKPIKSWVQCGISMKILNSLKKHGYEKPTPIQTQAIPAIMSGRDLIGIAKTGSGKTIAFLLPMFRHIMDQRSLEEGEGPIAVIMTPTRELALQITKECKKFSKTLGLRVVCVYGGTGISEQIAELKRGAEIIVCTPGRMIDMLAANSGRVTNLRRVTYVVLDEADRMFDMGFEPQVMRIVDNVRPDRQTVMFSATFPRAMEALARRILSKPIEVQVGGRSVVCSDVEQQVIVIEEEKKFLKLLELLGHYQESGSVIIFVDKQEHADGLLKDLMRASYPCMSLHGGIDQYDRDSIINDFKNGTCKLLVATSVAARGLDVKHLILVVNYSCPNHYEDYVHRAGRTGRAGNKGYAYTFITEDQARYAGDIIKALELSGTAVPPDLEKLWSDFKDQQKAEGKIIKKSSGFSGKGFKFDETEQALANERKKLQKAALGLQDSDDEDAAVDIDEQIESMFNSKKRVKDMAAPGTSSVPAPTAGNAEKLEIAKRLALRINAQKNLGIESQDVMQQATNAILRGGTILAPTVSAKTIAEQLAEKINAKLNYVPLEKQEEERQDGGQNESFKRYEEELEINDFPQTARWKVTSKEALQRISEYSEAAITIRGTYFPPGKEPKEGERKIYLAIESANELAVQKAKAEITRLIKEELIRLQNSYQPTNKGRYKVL
Chain of UniProt P42167 (P42167 whole entry): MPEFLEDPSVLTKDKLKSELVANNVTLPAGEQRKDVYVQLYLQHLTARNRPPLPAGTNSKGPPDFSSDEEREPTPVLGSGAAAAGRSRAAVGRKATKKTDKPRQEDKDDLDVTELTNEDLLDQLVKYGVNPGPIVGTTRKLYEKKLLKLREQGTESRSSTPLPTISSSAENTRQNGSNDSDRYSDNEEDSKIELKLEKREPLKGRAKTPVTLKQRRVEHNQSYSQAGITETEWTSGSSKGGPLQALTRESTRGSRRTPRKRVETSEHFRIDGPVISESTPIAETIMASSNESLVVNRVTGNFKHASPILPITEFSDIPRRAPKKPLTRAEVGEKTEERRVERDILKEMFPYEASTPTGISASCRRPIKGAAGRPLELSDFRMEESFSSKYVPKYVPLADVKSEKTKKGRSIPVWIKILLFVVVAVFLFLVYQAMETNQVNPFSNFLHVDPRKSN
Chain of UniProt Q99623 (Q99623 whole entry): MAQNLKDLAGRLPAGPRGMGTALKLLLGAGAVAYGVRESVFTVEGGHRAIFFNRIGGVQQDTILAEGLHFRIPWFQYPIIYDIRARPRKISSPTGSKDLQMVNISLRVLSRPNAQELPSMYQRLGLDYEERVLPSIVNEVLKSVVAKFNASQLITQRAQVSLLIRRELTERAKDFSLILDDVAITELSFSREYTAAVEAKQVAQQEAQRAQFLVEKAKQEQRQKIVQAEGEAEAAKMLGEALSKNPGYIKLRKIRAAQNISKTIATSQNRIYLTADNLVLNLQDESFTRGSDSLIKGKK
Chain of UniProt Q03252 (Q03252 whole entry): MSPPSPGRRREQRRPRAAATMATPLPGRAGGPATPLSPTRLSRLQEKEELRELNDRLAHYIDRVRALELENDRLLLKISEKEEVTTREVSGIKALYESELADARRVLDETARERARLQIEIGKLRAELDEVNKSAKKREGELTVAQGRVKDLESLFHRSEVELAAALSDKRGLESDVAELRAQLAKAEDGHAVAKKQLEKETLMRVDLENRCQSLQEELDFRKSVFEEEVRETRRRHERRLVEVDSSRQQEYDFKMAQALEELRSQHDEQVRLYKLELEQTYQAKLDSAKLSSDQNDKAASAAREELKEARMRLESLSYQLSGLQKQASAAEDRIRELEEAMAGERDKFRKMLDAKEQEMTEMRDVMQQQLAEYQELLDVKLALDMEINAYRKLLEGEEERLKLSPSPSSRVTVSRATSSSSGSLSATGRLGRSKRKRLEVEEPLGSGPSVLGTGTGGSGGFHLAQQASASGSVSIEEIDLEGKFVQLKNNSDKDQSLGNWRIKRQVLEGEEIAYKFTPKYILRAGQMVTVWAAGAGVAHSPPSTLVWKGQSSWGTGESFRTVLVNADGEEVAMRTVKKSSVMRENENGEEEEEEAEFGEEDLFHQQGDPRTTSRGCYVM
Chain of UniProt Q14103 (Q14103 whole entry): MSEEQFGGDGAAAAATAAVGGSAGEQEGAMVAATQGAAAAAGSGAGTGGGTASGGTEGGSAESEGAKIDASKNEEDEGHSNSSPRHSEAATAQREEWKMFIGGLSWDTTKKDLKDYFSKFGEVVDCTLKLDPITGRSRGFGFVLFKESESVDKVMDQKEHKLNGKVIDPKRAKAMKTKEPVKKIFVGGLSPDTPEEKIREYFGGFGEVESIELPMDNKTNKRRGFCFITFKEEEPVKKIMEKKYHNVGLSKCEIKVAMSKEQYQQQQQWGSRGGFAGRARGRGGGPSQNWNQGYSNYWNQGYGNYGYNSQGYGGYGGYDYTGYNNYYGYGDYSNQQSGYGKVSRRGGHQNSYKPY
Chain of UniProt Q5JTV8 (Q5JTV8 whole entry): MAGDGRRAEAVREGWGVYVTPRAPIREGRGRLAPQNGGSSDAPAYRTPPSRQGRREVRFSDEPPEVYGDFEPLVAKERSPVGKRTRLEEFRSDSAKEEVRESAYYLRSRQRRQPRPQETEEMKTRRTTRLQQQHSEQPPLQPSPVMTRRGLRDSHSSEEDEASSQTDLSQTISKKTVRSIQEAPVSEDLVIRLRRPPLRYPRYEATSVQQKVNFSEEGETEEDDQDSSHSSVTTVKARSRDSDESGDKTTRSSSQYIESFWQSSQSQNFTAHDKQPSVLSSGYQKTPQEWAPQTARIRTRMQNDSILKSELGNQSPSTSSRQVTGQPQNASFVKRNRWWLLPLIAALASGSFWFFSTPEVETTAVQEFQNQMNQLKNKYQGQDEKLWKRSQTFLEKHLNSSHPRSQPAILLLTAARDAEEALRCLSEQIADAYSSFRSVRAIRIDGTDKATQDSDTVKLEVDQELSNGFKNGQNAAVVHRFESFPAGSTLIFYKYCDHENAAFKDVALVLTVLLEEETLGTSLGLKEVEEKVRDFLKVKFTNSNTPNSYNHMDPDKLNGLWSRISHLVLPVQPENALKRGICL
Chain of UniProt P29692 (P29692 whole entry): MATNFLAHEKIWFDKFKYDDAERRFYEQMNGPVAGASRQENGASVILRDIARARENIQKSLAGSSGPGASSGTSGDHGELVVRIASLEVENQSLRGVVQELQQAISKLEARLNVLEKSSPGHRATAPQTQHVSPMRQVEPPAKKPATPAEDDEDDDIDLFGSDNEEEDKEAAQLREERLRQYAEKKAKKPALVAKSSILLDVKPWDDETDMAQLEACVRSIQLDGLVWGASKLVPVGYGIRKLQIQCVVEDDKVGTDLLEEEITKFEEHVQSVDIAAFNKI
Chain of UniProt Q9Y2R0 (Q9Y2R0 whole entry): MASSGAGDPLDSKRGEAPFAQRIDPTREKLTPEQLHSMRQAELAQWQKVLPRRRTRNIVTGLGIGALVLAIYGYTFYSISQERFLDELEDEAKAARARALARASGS

Conditions in all cases: DSSO, in cells

Chain of EEF1G (P26641 whole entry): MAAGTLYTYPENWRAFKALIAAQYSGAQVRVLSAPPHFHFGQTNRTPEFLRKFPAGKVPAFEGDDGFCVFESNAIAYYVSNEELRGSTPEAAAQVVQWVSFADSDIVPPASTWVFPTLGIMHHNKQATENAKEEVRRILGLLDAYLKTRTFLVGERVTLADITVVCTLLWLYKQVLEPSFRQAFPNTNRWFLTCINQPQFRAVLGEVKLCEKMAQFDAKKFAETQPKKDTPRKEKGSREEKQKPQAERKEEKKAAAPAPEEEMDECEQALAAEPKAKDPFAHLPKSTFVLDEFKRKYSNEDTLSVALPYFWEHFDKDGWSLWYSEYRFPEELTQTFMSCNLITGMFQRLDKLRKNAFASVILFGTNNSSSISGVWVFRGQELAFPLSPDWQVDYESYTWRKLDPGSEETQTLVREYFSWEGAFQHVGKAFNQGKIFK
Chain of IMMT (Q16891 whole entry): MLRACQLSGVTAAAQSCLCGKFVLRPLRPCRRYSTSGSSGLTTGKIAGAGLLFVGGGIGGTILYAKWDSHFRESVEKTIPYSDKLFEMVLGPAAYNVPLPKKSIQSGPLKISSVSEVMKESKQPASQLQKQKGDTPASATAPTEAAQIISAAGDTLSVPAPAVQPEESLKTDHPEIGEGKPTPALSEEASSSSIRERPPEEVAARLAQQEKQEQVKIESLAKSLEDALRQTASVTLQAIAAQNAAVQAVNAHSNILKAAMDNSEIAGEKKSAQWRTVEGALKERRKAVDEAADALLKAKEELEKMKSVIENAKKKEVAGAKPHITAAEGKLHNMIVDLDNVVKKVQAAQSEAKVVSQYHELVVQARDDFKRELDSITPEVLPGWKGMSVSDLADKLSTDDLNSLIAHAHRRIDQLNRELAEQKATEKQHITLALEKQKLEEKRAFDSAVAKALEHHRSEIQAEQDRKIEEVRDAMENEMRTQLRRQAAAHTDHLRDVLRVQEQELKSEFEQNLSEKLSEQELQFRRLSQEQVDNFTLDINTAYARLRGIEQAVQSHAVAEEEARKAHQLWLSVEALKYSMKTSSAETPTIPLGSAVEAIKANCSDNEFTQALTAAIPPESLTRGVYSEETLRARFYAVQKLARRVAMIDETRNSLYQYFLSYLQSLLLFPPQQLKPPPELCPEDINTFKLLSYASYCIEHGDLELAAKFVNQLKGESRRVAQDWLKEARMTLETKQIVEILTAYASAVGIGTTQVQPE

On to GOT2, P00505, for which the cross-linked residues entry with ALDH2 was “K150 - T356 and K363 - K368”; in the assay with HSPE1, “K90 - K8 and K90 - K56 and K363 - K8 and K363 - K56”; in the assay with MDH2 it was “K82 - K239 and K150 - K239 and K338 - K239 and K363 - K185 and K363 - K239 and K363 - K301”.

Take AP2B1, P63010: the cross-linked residues result in the assay with AP2M1 was “K31 - K139 and K282 - K281”. Turning to EEF1G, P26641, the cross-linked residues entry with EEF1D is “K52 - K59 and K219 - K17 and K227 - K17 and K285 - K117 and K434 - K17 and K434 - K117”.

Consider HSP90B1, P14625, for which, in the assay with CNPY2, the cross-linked residues result was “K161 - K49 and K168 - K49”.

For RRS1, Q15050, the cross-linked residues entry in the assay with EBNA1BP2 was “K184 - K127 and K184 - K229”. For CHMP1B, Q7LBR1, the cross-linked residues result in the assay with CHMP2B was “K87 - K130 and K90 - K130”.

Consider SERPINE1, P05121, for which the cross-linked residues result with CALR was “K145 - K153 and K177 - K153”.

Take HSPD1, P10809: the cross-linked residues entry with FDXR is “K133 - K287 and K191 - K287”; in the assay with HSPA9 it was “K31 - K206 and K31 - K625 and S70 - K625 and K75 - K625 and K75 - K671 and K125 - K206 and K133 - K394 and K133 - K625 and K473 - K138”; with MDH2 it was “K91 - K239 and K130 - K239 and K133 - K239 and K191 - K239 and K191 - K301 and K359 - K239 and K364 - K239 and K469 - K239 and K473 - K239”. IMMT, Q16891: the cross-linked residues result in the assay with CHCHD3 is “K269 - K45 and K282 - K165 and K423 - K45 and K436 - K45 and K451 - S44”. For COX5B, P10606, the cross-linked residues result with COA3 was “S82 - T31 and S84 - K29 and K86 - K29”.

Consider TCP1, P17987, for which the cross-linked residues result with CCT8 is “K494 - K466 and K532 - K7”. For PHB1, P35232, the cross-linked residues result is “K208 - T41 and K208 - K54” with CYCS; “K83 - K200 and K128 - K89 and K186 - K97 and K186 - K200 and K202 - K200 and K202 - K216 and K202 - K224 and K202 - K262 and K207 - K236” with PHB2. Consider GAPDH, P04406, for which the cross-linked residues entry in the assay with ENO1 is “K215 - K256 and K263 - K420”. Consider PES1, O00541, for which the cross-linked residues result with BOP1 is “K56 - K339 and K564 - K339”. Consider SF3B1, O75533, for which the cross-linked residues entry with DDX46 is “S332 - K316 and K333 - K316 and K493 - K248”. As for HK1, P19367, the cross-linked residues entry with HKDC1 was “K624 - K102 and K738 - K102”. As for LMNA, P02545, the cross-linked residues result with H4C1 is “K420 - K78 and K450 - K9 and K470 - K9”; in the assay with LMNB1, “K32 - K261 and K78 - K209 and K90 - K312 and K97 - K123 and K97 - K157 and K97 - K182 and K108 - K182 and K135 - K312 and K181 - K102 and K233 - K49 and K260 - K271 and K270 - K261 and K270 - K330 and K270 - K457 and K316 - K312 and T416 - K49 and K420 - K49 and K420 - K271 and K420 - K312 and K457 - K49”; in the assay with LMNB2 it was “K90 - K223 and K97 - K200 and K123 - K186 and K171 - K195 and K181 - K123 and K260 - K285 and K270 - K290 and K316 - K326 and K341 - K298 and K420 - K81”; in the assay with TMPO, “K90 - K303 and K90 - K334 and K97 - K213 and K97 - S306 and K97 - K334 and K97 - S388 and K123 - S306 and K123 - K334 and K135 - K213 and K270 - K334 and K316 - K334 and K420 - K334 and K470 - K334”; with TOR1AIP1, “K90 - K248 and K97 - K248 and K123 - K248”. As for PDIA4, P13667, the cross-linked residues entry with HSP90B1 is “K245 - K547 and K294 - K72 and K570 - K603”; in the assay with PPIB, “K211 - K84 and K245 - K116”.

Take NSMCE1, Q8WV22: the cross-linked residues entry with NSMCE3 is “K144 - K212 and K152 - K212”.

For the substance H1-3, P16402, the cross-linked residues result with H1-2 was “K149 - K160 and K161 - K160”; with H4C1, “K33 - K32 and K33 - K78 and K188 - K78”. Turning to HEATR1, Q9H583, the cross-linked residues entry in the assay with NOP58 is “K84 - K422 and K1348 - K37”. On to LMNB1, P20700, for which the cross-linked residues entry was “K102 - K200 and K123 - K186 and K156 - K150 and K182 - K123” in the assay with LMNB2; “K102 - K334 and K109 - K334 and K123 - K213 and K123 - K334 and K124 - K334 and K134 - K213 and K134 - K334 and K312 - T335” with TMPO.

For the substance HSP90AA1, P07900, in the assay with HSP90AB4P, the cross-linked residues entry is “K489 - K446 and K585 - K446”. Take HNRNPDL, O14979: the cross-linked residues entry in the assay with HNRNPD was “S141 - T193 and S141 - S250 and K162 - T193 and K212 - K114 and K212 - K119”; with HNRNPK, “K142 - K60 and K302 - K198”. SURF6, O75683: the cross-linked residues entry with MYBBP1A is “K16 - K263 and K34 - K344”; with RPL23A, “K34 - K115 and K135 - K88”.
